The source gives no read counts; variants with many changes may rest on few reads.
B1: CPEB3 Ribozyme (parent)
chain: UAACAGGGGGCCACAGCAGAAGCGUUCACGUCGCAGCCCCUGUCAGAUUCUGGUGAAUCUGCGAAUUCUGCUGUAUAUCUC

Variants of: B1
Experiment: self-cleavage, relative activity (ratio to wild type); higher = more cleavage; in vitro, sequencing
How it was run: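 Barcoded CPEB3 ribozyme mutants, produced by rounds of error-prone PCR, self-cleaved while being transcribed with T7 RNA polymerase for 5 hours at 37°C and during a subsequent 15 min DNase I step before EDTA was added. Sequencing of template-switched cDNA on Illumina gave cleaved and total reads, and DNA sequencing assigned barcodes to variants. Each variant's relative activity is its cleaved/total read fraction divided by the unmutated ribozyme's fraction, averaged across three batches. A variant needed a minimum of 5 reads.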

Row | Variant | self-cleavage
1 | A18C U49G U67C U80A | 0.11
2 | A18C U54C A65G | 0.12
3 | A18C U54C A77U U80C | 0.39
4 | A18C U58A U78C | 0.07
5 | A18C U66A U72C | 0.17
6 | A18G A20G A21G U25C U43C | 0.58
7 | A18G A20G A21U U48A A57G A64U U74A | 0.07
8 | A18G A20G A28G U48C | 0.56
9 | A18G A20G A35G C38U U48A A77G U80A | 0.42
10 | A18G A20G A56G | 0.4
11 | A18G A20G A57G G70A | 0.07
12 | A18G A20G C23G A35G A56G | 0.07
13 | A18G A20G C50U U76A | 0.21
14 | A18G A20G G36C U43C U48C A64U U67C | 0.23
15 | A18G A20G U31C U54C A57G A64G U67C | 0.2
16 | A18G A20G U41A U43A | 0.49
17 | A18G A20G U41C | 0.47
18 | A18G A20G U43A A47G C62U | 0.07
19 | A18G A20G U51A U54A U67C U72G | 0.22
20 | A18G A20G U51C U54G U58C U78A | 0.1
21 | A18G A20G U54A A56U | 0.32
22 | A18G A20G U60G | 0.34
23 | A18G A20G U74C | 0.45
24 | A18G A20G U76C | 0.59

Row | Variant | self-cleavage
25 | A18G A20U A35G G42A U67A | 0.43
26 | A18G A20U A47U U72A | 0.07
27 | A18G A20U C29U U51C | 0.07
28 | A18G A20U U25A U60A | 0.05
29 | A18G A20U U31C A35G U49C U78C | 0.04
30 | A18G A20U U49A | 0.34
31 | A18G A20U U60A | 0.2
32 | A18G A21C U26C U41A A56G U58C U69A | 0.11
33 | A18G A21G A28G A56G | 0.15
34 | A18G A21G A35G U69C | 1.19
35 | A18G A21G A35U A57G A65G G70U | 0.08
36 | A18G A21G A35U A65U | 0.14
37 | A18G A21G A35U G46U U51G U72G U74G | 0.05
38 | A18G A21G A45U A57G A77G | 0.08
39 | A18G A21G A56G U60C U72A | 0.22
40 | A18G A21G A65G U67A | 0.06
41 | A18G A21G A65U C81U | 0.25
42 | A18G A21G A77G | 0.46
43 | A18G A21G A77G U80A | 0.58
44 | A18G A21G C23A A56G U66C | 0.1
45 | A18G A21G C27A | 0.28
46 | A18G A21G C29U U72G | 0.33
47 | A18G A21G C40U U41C U60C U80A | 0.22
48 | A18G A21G G52A | 0.35

Row | Variant | self-cleavage
49 | A18G A21G G55A A56G G73C U78G | 0.34
50 | A18G A21G G55A A65G | 0.12
51 | A18G A21G G63U U78C | 0.49
52 | A18G A21G G70C | 0.19
53 | A18G A21G U25A G70C | 0.1
54 | A18G A21G U25C A35G A45G G61A U72C | 0.05
55 | A18G A21G U25C U41C U58C U74C | 0.07
56 | A18G A21G U26A | 0.28
57 | A18G A21G U26C A47G | 0.05
58 | A18G A21G U26C C27A A28G U54C U69A | 0.12
59 | A18G A21G U26C U41C U69C | 0.2
60 | A18G A21G U31C | 0.06
61 | A18G A21G U41A | 0.4
62 | A18G A21G U41C | 0.34
63 | A18G A21G U48C | 0.28
64 | A18G A21G U51A | 0.6
65 | A18G A21G U51A A64G A77U | 0.2
66 | A18G A21G U51C G63U U72C U78C | 0.36
67 | A18G A21G U54A U72A U80C | 0.73
68 | A18G A21G U67G | 0.6
69 | A18G A21G U69C U72C U76A | 1.1
70 | A18G A21G U74C | 0.66
71 | A18G A21U A28G U41A C62U U80C | 0.05
72 | A18G A21U C29U A35U U51C | 0.22

Row | Variant | self-cleavage
73 | A18G A21U C34U U43C U74A | 0.23
74 | A18G A21U G30A A45C | 0.08
75 | A18G A21U U26A C37U G52C U67C U69C | 0.08
76 | A18G A21U U31C U41G U51A | 0.16
77 | A18G A21U U48C U80A | 0.18
78 | A18G A28C A75G | 0.42
79 | A18G A28C U31C | 0.22
80 | A18G A28C U41A A45U | 0.25
81 | A18G A28C U43A U48C U54C U80A | 0.01
82 | A18G A28C U49C C59G | 0.06
83 | A18G A28C U76A | 0.24
84 | A18G A28G A45U U58A A65G U69G | 0.07
85 | A18G A28G A56G A57G U67A | 0.05
86 | A18G A28G A57G | 0.22
87 | A18G A28G A65G | 0.1
88 | A18G A28G A65G U67C U74C | 0.39
89 | A18G A28G A77U | 0.15
90 | A18G A28G C39U U54C A75G | 0.29
91 | A18G A28G G36A A77U | 0.17
92 | A18G A28G U31A U43A A57G U74C A77U | 0.2
93 | A18G A28G U41A U49C C62U | 0.05
94 | A18G A28G U41G | 0.23
95 | A18G A28G U51C | 0.54
96 | A18G A28G U54A U67A | 0.14

Row | Variant | self-cleavage
97 | A18G A28G U54C U78C | 0.19
98 | A18G A28G U54G | 0.2
99 | A18G A28G U60A U67G U69C | 0.16
100 | A18G A28G U60C | 0.18
101 | A18G A28G U66A U78C | 0.18
102 | A18G A28G U72C | 0.28
103 | A18G A28U A65G | 0.14
104 | A18G A28U C38A | 0.27
105 | A18G A28U U31A U66C U69A | 0.14
106 | A18G A28U U31C U60A | 0.05
107 | A18G A28U U41C | 0.5
108 | A18G A35C U41C | 0.23
109 | A18G A35C U41C U78C | 0.67
110 | A18G A35C U60A U67C A77U | 0.18
111 | A18G A35C U72G | 0.49
112 | A18G A35G A45C U76A | 0.42
113 | A18G A35G A56G U58C C71U | 0.31
114 | A18G A35G A56U | 0.77
115 | A18G A35G A57G U66C | 0.48
116 | A18G A35G A57U U60G C68U U76G | 0.23
117 | A18G A35G A64G | 1.27
118 | A18G A35G C39U A56G | 0.42
119 | A18G A35G C59A U67C | 0.2
120 | A18G A35G C59U A64G U67C | 0.21

Row | Variant | self-cleavage
121 | A18G A35G U41G A45G U76C | 0.08
122 | A18G A35G U43C A45G U76C | 0.23
123 | A18G A35G U49A U66C U72C | 0.16
124 | A18G A35G U60A | 0.4
125 | A18G A35G U76G | 1.09
126 | A18G A35U A47G | 0.12
127 | A18G A35U A56C U67C | 0.07
128 | A18G A35U A65C | 0.16
129 | A18G A35U C62U | 0.42
130 | A18G A35U G36A U49C U76A | 0.09
131 | A18G A35U U41A A45U U58C | 0.2
132 | A18G A35U U41G A47G | 0.19
133 | A18G A35U U43A U58C | 0.16
134 | A18G A35U U51A | 0.11
135 | A18G A45C U49C | 0.2
136 | A18G A45G A47G G55A | 0.12
137 | A18G A45G A47U | 0.19
138 | A18G A45G A56G | 0.36
139 | A18G A45G A57G C59G U80C | 0.11
140 | A18G A45G A77G U78C | 0.29
141 | A18G A45G U49A | 0.21
142 | A18G A45G U49A U51A A75G A77U | 0.2
143 | A18G A45G U51A U60C | 0.95
144 | A18G A45G U51C A56U A64G | 0.1

Row | Variant | self-cleavage
145 | A18G A45G U60C | 0.79
146 | A18G A45G U60G | 0.32
147 | A18G A45U A56G A57G | 0.19
148 | A18G A45U A56U U80A | 0.26
149 | A18G A45U A64U | 0.18
150 | A18G A45U A65G A77U | 0.09
151 | A18G A45U U48A U76C U78C | 0.16
152 | A18G A45U U51A A56U | 0.16
153 | A18G A45U U51G U60C U66C | 0.13
154 | A18G A45U U54C U67C U78A | 0.25
155 | A18G A45U U54G | 0.31
156 | A18G A45U U78A | 0.43
157 | A18G A47G A56G | 0.42
158 | A18G A47G U48C A57G U76A | 0.94
159 | A18G A47G U51A G70A U80G | 0.23
160 | A18G A47G U51C U76C | 0.15
161 | A18G A47U U49C U58C U67C | 0.08
162 | A18G A47U U60A U66A | 0.22
163 | A18G A56G A65U | 0.1
164 | A18G A56G C62A U67A U78A | 0.07
165 | A18G A56G U60C | 0.24
166 | A18G A56G U66C | 0.16
167 | A18G A56G U67A | 0.32

Source: the RNAGym collection of RNA variant scans (doi:10.1093/nar/gkz1192)
